{
  "source": "the supplement of paper PMC10724272",
  "note": "MIC of invasive clinical C. tropicalis isolates, CLSI broth microdilution (fluconazole 0.12-256 mg/L, up to 1,024 for the azole-resistant cluster and its neighbour group; other ranges not stated); higher = less susceptible. Call: susceptible or wild type [S] / resistant or non-wild type [R] by CLSI breakpoints or cut-offs; intermediate and dose-dependent carry no call. '<=' and '>=' at the end values are inferred; the source marks only some of them. Isolates are numbered anew.",
  "data": [
    {"compound": "C[C@@H]1[C@H](O)[C@@H](C)/C=C/C=C/C=C/C=C/C=C/C=C/C=C/[C@H](O[C@@H]2O[C@H](C)[C@@H](O)[C@H](N)[C@@H]2O)C[C@@H]2O[C@](O)(C[C@@H](O)C[C@@H](O)[C@H](O)CC[C@@H](O)C[C@@H](O)CC(=O)O[C@H]1C)C[C@H](O)[C@H]2C(=O)O [amphotericin B]", "test": "CLSI broth microdilution.", "values": [
      {"test system": "Candida tropicalis isolate 272 (ERG11 copies: 2, Erg11p: no key change)", "MIC": "1 mg/L [S]"},
      {"test system": "Candida tropicalis isolate 296 (ERG11 copies: 2, Erg11p: no key change)", "MIC": "0.5 mg/L [S]"},
      {"test system": "Candida tropicalis isolate 209 (ERG11 copies: 2, Erg11p: no key change)", "MIC": "1 mg/L [S]"},
      {"test system": "Candida tropicalis isolate 5 (ERG11 copies: 6, Erg11p: Y132F, S154F (heterozygous))", "MIC": "0.12 mg/L [S]"},
      {"test system": "Candida tropicalis isolate 426 (ERG11 copies: 2, Erg11p: no key change)", "MIC": "1 mg/L [S]"},
      {"test system": "Candida tropicalis isolate 392 (ERG11 copies: 2, Erg11p: no key change)", "MIC": "1 mg/L [S]"},
      {"test system": "Candida tropicalis isolate 124 (ERG11 copies: 2, Erg11p: no key change)", "MIC": "1 mg/L [S]"},
      {"test system": "Candida tropicalis isolate 103 (ERG11 copies: 2, Erg11p: no key change)", "MIC": "0.25 mg/L [S]"},
      {"test system": "Candida tropicalis isolate 206 (ERG11 copies: 2, Erg11p: no key change)", "MIC": "1 mg/L [S]"}
    ]},
    {"compound": "Nc1[nH]c(=O)ncc1F [flucytosine]", "test": "CLSI broth microdilution.", "values": [
      {"test system": "Candida tropicalis isolate 41 (ERG11 copies: 2, Erg11p: no key change)", "MIC": "≤ 0.06 mg/L [S]"},
      {"test system": "Candida tropicalis isolate 114 (ERG11 copies: 2, Erg11p: no key change)", "MIC": "≤ 0.06 mg/L [S]"},
      {"test system": "Candida tropicalis isolate 52 (ERG11 copies: 2, Erg11p: Y132F, S154F (homozygous))", "MIC": "≤ 0.06 mg/L [S]"},
      {"test system": "Candida tropicalis isolate 431 (ERG11 copies: 2, Erg11p: no key change)", "MIC": "≤ 0.06 mg/L [S]"},
      {"test system": "Candida tropicalis isolate 366 (ERG11 copies: 8, Erg11p: Y132F, S154F (heterozygous))", "MIC": "≤ 0.06 mg/L [S]"},
      {"test system": "Candida tropicalis isolate 171 (ERG11 copies: 2, Erg11p: no key change)", "MIC": "≤ 0.06 mg/L [S]"},
      {"test system": "Candida tropicalis isolate 278 (ERG11 copies: 2, Erg11p: no key change)", "MIC": "≤ 0.06 mg/L [S]"},
      {"test system": "Candida tropicalis isolate 358 (ERG11 copies: 2, Erg11p: Y132F, S154F (heterozygous))", "MIC": "≤ 0.06 mg/L [S]"},
      {"test system": "Candida tropicalis isolate 363 (ERG11 copies: 2, Erg11p: no key change)", "MIC": "≤ 0.06 mg/L [S]"},
      {"test system": "Candida tropicalis isolate 268 (ERG11 copies: 2, Erg11p: no key change)", "MIC": "≤ 0.06 mg/L [S]"},
      {"test system": "Candida tropicalis isolate 233 (ERG11 copies: 10, Erg11p: Y132F, S154F (heterozygous))", "MIC": "≤ 0.06 mg/L [S]"},
      {"test system": "Candida tropicalis isolate 138 (ERG11 copies: 2, Erg11p: no key change)", "MIC": "≤ 0.06 mg/L [S]"},
      {"test system": "Candida tropicalis isolate 224 (ERG11 copies: 2, Erg11p: no key change)", "MIC": "≤ 0.06 mg/L [S]"},
      {"test system": "Candida tropicalis isolate 217 (ERG11 copies: 2, Erg11p: no key change)", "MIC": "≤ 0.06 mg/L [S]"},
      {"test system": "Candida tropicalis isolate 357 (ERG11 copies: 2, Erg11p: no key change)", "MIC": "≤ 0.06 mg/L [S]"},
      {"test system": "Candida tropicalis isolate 231 (ERG11 copies: 2, Erg11p: no key change)", "MIC": "≤ 0.06 mg/L [S]"},
      {"test system": "Candida tropicalis isolate 150 (ERG11 copies: 16, Erg11p: Y132F, S154F (heterozygous))", "MIC": "≤ 0.06 mg/L [S]"},
      {"test system": "Candida tropicalis isolate 234 (ERG11 copies: 2, Erg11p: no key change)", "MIC": "≤ 0.06 mg/L [S]"},
      {"test system": "Candida tropicalis isolate 385 (ERG11 copies: 2, Erg11p: no key change)", "MIC": "0.12 mg/L [S]"},
      {"test system": "Candida tropicalis isolate 220 (ERG11 copies: 2, Erg11p: no key change)", "MIC": "≤ 0.06 mg/L [S]"},
      {"test system": "Candida tropicalis isolate 143 (ERG11 copies: 2, Erg11p: no key change)", "MIC": "≤ 0.06 mg/L [S]"},
      {"test system": "Candida tropicalis isolate 145 (ERG11 copies: 7, Erg11p: Y132F, S154F (heterozygous))", "MIC": "≤ 0.06 mg/L [S]"},
      {"test system": "Candida tropicalis isolate 48 (ERG11 copies: 8, Erg11p: Y132F, S154F (heterozygous))", "MIC": "≤ 0.06 mg/L [S]"},
      {"test system": "Candida tropicalis isolate 133 (ERG11 copies: 2, Erg11p: no key change)", "MIC": "≤ 0.06 mg/L [S]"},
      {"test system": "Candida tropicalis isolate 130 (ERG11 copies: 2, Erg11p: no key change)", "MIC": "≤ 0.06 mg/L [S]"},
      {"test system": "Candida tropicalis isolate 154 (ERG11 copies: 2, Erg11p: no key change)", "MIC": "≤ 0.06 mg/L [S]"},
      {"test system": "Candida tropicalis isolate 390 (ERG11 copies: 2, Erg11p: no key change)", "MIC": "≤ 0.06 mg/L [S]"},
      {"test system": "Candida tropicalis isolate 272 (ERG11 copies: 2, Erg11p: no key change)", "MIC": "≤ 0.06 mg/L [S]"},
      {"test system": "Candida tropicalis isolate 296 (ERG11 copies: 2, Erg11p: no key change)", "MIC": "0.12 mg/L [S]"},
      {"test system": "Candida tropicalis isolate 209 (ERG11 copies: 2, Erg11p: no key change)", "MIC": "≤ 0.06 mg/L [S]"},
      {"test system": "Candida tropicalis isolate 5 (ERG11 copies: 6, Erg11p: Y132F, S154F (heterozygous))", "MIC": "≤ 0.06 mg/L [S]"},
      {"test system": "Candida tropicalis isolate 426 (ERG11 copies: 2, Erg11p: no key change)", "MIC": "≤ 0.06 mg/L [S]"},
      {"test system": "Candida tropicalis isolate 392 (ERG11 copies: 2, Erg11p: no key change)", "MIC": "≤ 0.06 mg/L [S]"},
      {"test system": "Candida tropicalis isolate 124 (ERG11 copies: 2, Erg11p: no key change)", "MIC": "≤ 0.06 mg/L [S]"},
      {"test system": "Candida tropicalis isolate 103 (ERG11 copies: 2, Erg11p: no key change)", "MIC": "≥ 64 mg/L [R]"},
      {"test system": "Candida tropicalis isolate 206 (ERG11 copies: 2, Erg11p: no key change)", "MIC": "≤ 0.06 mg/L [S]"}
    ]},
    {"compound": "OC(Cn1cncn1)(Cn1cncn1)c1ccc(F)cc1F [fluconazole]", "test": "CLSI broth microdilution.", "values": [
      {"test system": "Candida tropicalis isolate 41 (ERG11 copies: 2, Erg11p: no key change)", "MIC": "1 mg/L [S]"},
      {"test system": "Candida tropicalis isolate 114 (ERG11 copies: 2, Erg11p: no key change)", "MIC": "1 mg/L [S]"},
      {"test system": "Candida tropicalis isolate 52 (ERG11 copies: 2, Erg11p: Y132F, S154F (homozygous))", "MIC": "256 mg/L [R]"},
      {"test system": "Candida tropicalis isolate 431 (ERG11 copies: 2, Erg11p: no key change)", "MIC": "2 mg/L [S]"},
      {"test system": "Candida tropicalis isolate 366 (ERG11 copies: 8, Erg11p: Y132F, S154F (heterozygous))", "MIC": "512 mg/L [R]"},
      {"test system": "Candida tropicalis isolate 171 (ERG11 copies: 2, Erg11p: no key change)", "MIC": "1 mg/L [S]"},
      {"test system": "Candida tropicalis isolate 278 (ERG11 copies: 2, Erg11p: no key change)", "MIC": "4 µg/mL"},
      {"test system": "Candida tropicalis isolate 358 (ERG11 copies: 2, Erg11p: Y132F, S154F (heterozygous))", "MIC": "64 mg/L [R]"},
      {"test system": "Candida tropicalis isolate 363 (ERG11 copies: 2, Erg11p: no key change)", "MIC": "4 µg/mL"},
      {"test system": "Candida tropicalis isolate 268 (ERG11 copies: 2, Erg11p: no key change)", "MIC": "2 mg/L [S]"},
      {"test system": "Candida tropicalis isolate 233 (ERG11 copies: 10, Erg11p: Y132F, S154F (heterozygous))", "MIC": "512 mg/L [R]"},
      {"test system": "Candida tropicalis isolate 138 (ERG11 copies: 2, Erg11p: no key change)", "MIC": "1 mg/L [S]"},
      {"test system": "Candida tropicalis isolate 224 (ERG11 copies: 2, Erg11p: no key change)", "MIC": "2 mg/L [S]"},
      {"test system": "Candida tropicalis isolate 217 (ERG11 copies: 2, Erg11p: no key change)", "MIC": "2 mg/L [S]"},
      {"test system": "Candida tropicalis isolate 357 (ERG11 copies: 2, Erg11p: no key change)", "MIC": "1 mg/L [S]"},
      {"test system": "Candida tropicalis isolate 231 (ERG11 copies: 2, Erg11p: no key change)", "MIC": "256 mg/L [R]"},
      {"test system": "Candida tropicalis isolate 150 (ERG11 copies: 16, Erg11p: Y132F, S154F (heterozygous))", "MIC": "512 mg/L [R]"},
      {"test system": "Candida tropicalis isolate 234 (ERG11 copies: 2, Erg11p: no key change)", "MIC": "1 mg/L [S]"},
      {"test system": "Candida tropicalis isolate 385 (ERG11 copies: 2, Erg11p: no key change)", "MIC": "16 mg/L [R]"},
      {"test system": "Candida tropicalis isolate 220 (ERG11 copies: 2, Erg11p: no key change)", "MIC": "1 mg/L [S]"},
      {"test system": "Candida tropicalis isolate 143 (ERG11 copies: 2, Erg11p: no key change)", "MIC": "1 mg/L [S]"},
      {"test system": "Candida tropicalis isolate 145 (ERG11 copies: 7, Erg11p: Y132F, S154F (heterozygous))", "MIC": "512 mg/L [R]"},
      {"test system": "Candida tropicalis isolate 48 (ERG11 copies: 8, Erg11p: Y132F, S154F (heterozygous))", "MIC": "512 mg/L [R]"},
      {"test system": "Candida tropicalis isolate 133 (ERG11 copies: 2, Erg11p: no key change)", "MIC": "1 mg/L [S]"},
      {"test system": "Candida tropicalis isolate 130 (ERG11 copies: 2, Erg11p: no key change)", "MIC": "1 mg/L [S]"},
      {"test system": "Candida tropicalis isolate 154 (ERG11 copies: 2, Erg11p: no key change)", "MIC": "1 mg/L [S]"},
      {"test system": "Candida tropicalis isolate 390 (ERG11 copies: 2, Erg11p: no key change)", "MIC": "2 mg/L [S]"},
      {"test system": "Candida tropicalis isolate 272 (ERG11 copies: 2, Erg11p: no key change)", "MIC": "128 mg/L [R]"},
      {"test system": "Candida tropicalis isolate 296 (ERG11 copies: 2, Erg11p: no key change)", "MIC": "2 mg/L [S]"},
      {"test system": "Candida tropicalis isolate 209 (ERG11 copies: 2, Erg11p: no key change)", "MIC": "1 mg/L [S]"},
      {"test system": "Candida tropicalis isolate 5 (ERG11 copies: 6, Erg11p: Y132F, S154F (heterozygous))", "MIC": "512 mg/L [R]"},
      {"test system": "Candida tropicalis isolate 426 (ERG11 copies: 2, Erg11p: no key change)", "MIC": "2 mg/L [S]"},
      {"test system": "Candida tropicalis isolate 392 (ERG11 copies: 2, Erg11p: no key change)", "MIC": "1 mg/L [S]"},
      {"test system": "Candida tropicalis isolate 124 (ERG11 copies: 2, Erg11p: no key change)", "MIC": "256 mg/L [R]"},
      {"test system": "Candida tropicalis isolate 103 (ERG11 copies: 2, Erg11p: no key change)", "MIC": "0.25 mg/L [S]"},
      {"test system": "Candida tropicalis isolate 206 (ERG11 copies: 2, Erg11p: no key change)", "MIC": "2 mg/L [S]"}
    ]}
  ]
}
